Results taken from patent US20260216242A1, “ALPP-SPECIFIC VARIANT ANTIGEN BINDING MOLECULES” (ALMAC DISCOVERY LIMITED, priority 2022, published 2026).
Changes are numbered by the printed parent chain. Numbers in names are those of the source.

T1: ALPI expressed on the surface of CHO cells (CHO-ALPI) (Homo sapiens, UniProt P09923)
T1 construct: expressed in transfected cells
T1 sequence (P09923 20-503 limits assumed): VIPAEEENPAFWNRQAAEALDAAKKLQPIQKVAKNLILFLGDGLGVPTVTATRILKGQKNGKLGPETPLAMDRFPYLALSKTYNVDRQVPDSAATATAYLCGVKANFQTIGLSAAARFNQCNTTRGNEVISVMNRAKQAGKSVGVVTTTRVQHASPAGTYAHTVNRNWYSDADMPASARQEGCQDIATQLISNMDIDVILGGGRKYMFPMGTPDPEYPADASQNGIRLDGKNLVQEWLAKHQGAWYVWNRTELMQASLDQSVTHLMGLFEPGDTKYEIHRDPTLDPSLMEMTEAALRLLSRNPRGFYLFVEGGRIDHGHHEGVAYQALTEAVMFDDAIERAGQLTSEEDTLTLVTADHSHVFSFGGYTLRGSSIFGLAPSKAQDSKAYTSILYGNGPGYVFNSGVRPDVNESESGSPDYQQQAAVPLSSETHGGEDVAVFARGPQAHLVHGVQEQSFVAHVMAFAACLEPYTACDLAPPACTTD

T2: ALPL expressed on the surface of CHO cells (CHO-ALPL) (Homo sapiens, UniProt P05186)
T2 construct: expressed in transfected cells
T2 sequence (P05186 18-501 limits assumed): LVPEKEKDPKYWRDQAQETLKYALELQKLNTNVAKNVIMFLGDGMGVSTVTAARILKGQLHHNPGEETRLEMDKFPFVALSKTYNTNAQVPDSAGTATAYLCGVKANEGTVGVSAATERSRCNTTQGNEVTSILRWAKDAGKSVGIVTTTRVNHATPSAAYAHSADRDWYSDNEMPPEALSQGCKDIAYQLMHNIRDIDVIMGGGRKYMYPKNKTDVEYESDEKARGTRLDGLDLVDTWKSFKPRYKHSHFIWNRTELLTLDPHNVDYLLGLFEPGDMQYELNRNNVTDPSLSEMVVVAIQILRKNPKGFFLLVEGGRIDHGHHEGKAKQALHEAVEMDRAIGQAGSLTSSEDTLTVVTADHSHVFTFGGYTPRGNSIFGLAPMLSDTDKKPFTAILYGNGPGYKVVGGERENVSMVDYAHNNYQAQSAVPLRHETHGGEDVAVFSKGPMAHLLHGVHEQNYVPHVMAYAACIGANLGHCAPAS

B1: E06-hFc (S239C): E06 VHH fused via [G4S]3 linker to human IgG1 Fc with S239C (SEQ ID NO: 99) (protein)
chain: QVHLVESGGGLVQAGGSLRLSCAASRRSFSEYAMGWFRQAPGKEREFVAAIGWSGVIEYADSVKGRFTISRDNAKDTVYLQMNSLKPEDTAVYYCAAGLGIRVVSQTPAYWGQGTQVTVSSGGGGSGGGGSGGGGS[human IgG1 Fc with changes not spelt out]
B2: E10-hFc (S239C): E10 VHH fused via [G4S]3 linker to human IgG1 Fc with S239C (SEQ ID NO: 100) (protein)
chain: QVQLVESGGGLVQAGGSLRLSCAVSGRALSDYNIGWFRQAPGKEREFVARKTWDGSSTRYDDSVKGRFTVSIEDAKNTAYLQMSSLKTEDTAVYYCAAGRYSRARGWEYDYWGQGTQVTVSSGGGGSGGGGSGGGGS[human IgG1 Fc with changes not spelt out]
B3: F05-hFc (S239C): F05 VHH fused via [G4S]3 linker to human IgG1 Fc with S239C (SEQ ID NO: 101) (protein)
chain: QVQLVESGGGLVQAGGSLRLSCAASGRAFGDYNIGWFRQAPGKEREFVARRTWDGSSTRYDDSVKGRFTVSIDNAKNTAYLQMNSLKTEDTAVYYCAAGRYSRVRGWEYDYWGQGTQVTVSSGGGGSGGGGSGGGGS[human IgG1 Fc with changes not spelt out]
B4: B01-hFc (S239C): B01 VHH fused via [G4S]3 linker to human IgG1 Fc with S239C (protein)
chain: QVQLVESGGGLVQAGGSLRLSCEVTRSPMPIDTMAWYRQAPGRQRELVAIISRSGSTNYADSVKGRFTISRNDTKSTMYKSTMYLKMNTLELEDTGVYYCNAVGLWNGAEYWGQGTQVTVSSGGGGSGGGGSGGGGS[human IgG1 Fc with changes not spelt out]
B5: D10-hFc (S239C): D10 VHH fused via [G4S]3 linker to human IgG1 Fc with S239C (SEQ ID NO: 98) (protein)
chain: QVQLVESGGGLVQPGGSLRLSCAASGSIFSVNTMGWYRQAPGKQRDLVAVATSGGTIHYADSVKGRFTISRDNAKNTVYLQMNSLKPEDTAVYYCNLVVPYGMIAGDHDYWGQGTKVTVSSGGGGSGGGGSGGGGS[human IgG1 Fc with changes not spelt out]
B6: C07-hFc (S239C): C07 VHH fused via [G4S]3 linker to human IgG1 Fc with S239C (protein)
chain: QVQLVESGGGLVQAGESLRLACAASGTIFSGNAVGWYRQAPEKQREWVSSITDYGDTDYAEAVKGRFTISRDNAKNTVYLQMNSLKPEDTAVYYCYVYQRGESEEYWGQGTQVTVSSGGGGSGGGGSGGGGS[human IgG1 Fc with changes not spelt out]
B7: A06-hFc (S239C): A06 VHH fused via [G4S]3 linker to human IgG1 Fc with S239C (SEQ ID NO: 97) (protein)
chain: QVHLVESGGGLVQAGGSLRLSCAASGRTFLSMGWFRQAPGKEREFVAAISWTGGSTGYADSVKGRFTISRESDKETMYLQMNSLKPEDTAVYYCAARGDVYYGGDDATRYKYWGQGTQVTVSSGGGGSGGGGSGGGGS[human IgG1 Fc with changes not spelt out]

Key:
[1] = target: T1, ALPI expressed on the surface of CHO cells (CHO-ALPI); experiment: Cell-surface binding by flow cytometry, CHO-ALPI; settings: for KDapp CHO-ALPI: VHH-hFc proteins, flow cytometry, up to 350 nM
Description: (§1) C-terminal His tagged VHH proteins were assessed for ALPP, ALPPL2, ALPI and ALPL cell-surface binding by flow cytometry. Binders encompassing different epitope bins were screened on CHO cells stably expressing ALPP, ALPPL2, ALPI or ALPL. High levels of cell-surface proteins expression were confirmed for each of the cell-lines by flow cytometry.
(§2) Cell surface binding of test agents to hALPP isoforms was characterized in four CHO-ALPP isoform stably transfected cell lines (CHO-ALPP, CHO-ALPPL2, CHO-ALPI and CHO-ALPL) and the resulting KDapp values determined. Adherent cells were detached from tissue culture flasks by incubating with 0.1% EDTA/PBS solution at 37° C. for ~10 minutes or until cells detached easily. Cells were re-suspended in ice-cold PBS/2% FCS in 15 ml tubes and centrifuged at 1700 rpm for 5 mins at 4° C. Supernatant was removed and the cell pellet re-suspended in PBS/2% FCS. A cell count was performed using a Chemometec Nucleocounter NC-202 and 2.5×10^5 cells were aliquoted per test sample into a 96 well plate. Cells were incubated with 100 μl of test agents at a range of concentrations, plus controls for 1 hr on ice. The sample plate was centrifuged at 1700 rpm for 5 mins at 4° C. The supernatant was removed, and a wash performed by re-suspending the cell pellets in 0.25 mL of ice-cold PBS/2% FCS using a multichannel pipette. Samples were again centrifuged at 1700 rpm for 5 min at 4° C. Supernatant was removed and two further washes performed as described. After the final wash and centrifugation step, excess liquid was removed by blotting the plate on tissue paper. Binding of VHH (His6 tagged) agents was determined by adding 100 μl of anti-x6His tag Ab (Abcam) per cell pellet sample as appropriate and incubating on ice for 30 mins. Wash steps were performed as described previously. Fitc-anti-mouse antibody (ThermoFisher) was used to detect binding of the VHH (His6 tagged) agents by incubating with the appropriate samples for 30 min on ice in the dark. Wash steps were performed as described previously. All cell pellets were finally re-suspended in […] of ice-cold PBS/2% FCS and left on ice in the dark prior to analysis on a Merck-Millipore Guava EasyCyte HT or Thermo Fisher Attune N×T flow cytometer.
(§3) VHH-hFc proteins were assessed for human ALPP, ALPPL2, ALPI and ALPL cell-surface binding by flow cytometry. Binders were screened on CHO cells stably expressing human ALPP, ALPPL2, ALPI or ALPL.
(§4) Cell surface binding of test agents to hALPP isoforms was characterized in four CHO-ALPP isoform transfectant cell lines (CHO-ALPP, CHO-ALPPL2, CHO-ALPI and CHO-ALPL) and the resulting KDapp values determined. Adherent cells were detached from tissue culture flasks by incubating with 0.1% EDTA/PBS solution at 37° C. for ~10 minutes or until cells detached easily. Cells were re-suspended in ice-cold PBS/2% FCS in 15 ml tubes and centrifuged at 1700 rpm for 5 mins at 4° C. Supernatant was removed and the cell pellet re-suspended in PBS/2% FCS. A cell count was performed using a Chemometec Nucleocounter NC-202 and 2.5×10^5 cells were aliquoted per test sample into a 96 well plate. Cells were incubated with 100 μl of test agents at a range of concentrations, plus controls for 1 hr on ice. The sample plate was centrifuged at 1700 rpm for 5 mins at 4° C. The supernatant was removed, and a wash performed by re-suspending the cell pellets in 0.25 mL of ice-cold PBS/2% FCS using a multichannel pipette. Samples were again centrifuged at 1700 rpm for 5 min at 4° C. Supernatant was removed and two further washes performed as described. After the final wash and centrifugation step, excess liquid was removed by blotting the plate on tissue paper. Binding of VHH-hFc agents was determined by adding 100 μl of Fitc-anti-human Ab (ThermoFisher) and incubating for 30 mins on ice in the dark. Wash steps were performed as described previously. […]

[2] = target: T2, ALPL expressed on the surface of CHO cells (CHO-ALPL); experiment: Cell-surface binding by flow cytometry, CHO-ALPL; settings: VHH-hFc proteins
Description: as §1, §2, §3, §4

| Molecule | KDapp CHO-ALPI [1] | KDapp CHO-ALPL [2] | binding to CHO-ALPI cells (in words) ([1]; VHH-hFc, highest concentration used (350 nM)) |
| --- | --- | --- | --- |
| B1 | No binding | No binding |  |
| B2 | No binding | No binding |  |
| B3 | No binding | No binding |  |
| B4 |  | No binding | very weak binding |
| B5 | No binding | No binding |  |
| B6 | No binding | No binding |  |
| B7 | No binding | No binding |  |
